Source: PMC4396366
No constants are given. Whether binding was seen depends on the method and setting. Binding seen in cells or lysates may run through a third protein. Some entries that bind do so weakly or less than the wild type. For some assays here: Tags and fused reporters may be left off the sequences shown.

Chains of the proteins cited; added tags and fusions are not shown.
UniProt Q04206: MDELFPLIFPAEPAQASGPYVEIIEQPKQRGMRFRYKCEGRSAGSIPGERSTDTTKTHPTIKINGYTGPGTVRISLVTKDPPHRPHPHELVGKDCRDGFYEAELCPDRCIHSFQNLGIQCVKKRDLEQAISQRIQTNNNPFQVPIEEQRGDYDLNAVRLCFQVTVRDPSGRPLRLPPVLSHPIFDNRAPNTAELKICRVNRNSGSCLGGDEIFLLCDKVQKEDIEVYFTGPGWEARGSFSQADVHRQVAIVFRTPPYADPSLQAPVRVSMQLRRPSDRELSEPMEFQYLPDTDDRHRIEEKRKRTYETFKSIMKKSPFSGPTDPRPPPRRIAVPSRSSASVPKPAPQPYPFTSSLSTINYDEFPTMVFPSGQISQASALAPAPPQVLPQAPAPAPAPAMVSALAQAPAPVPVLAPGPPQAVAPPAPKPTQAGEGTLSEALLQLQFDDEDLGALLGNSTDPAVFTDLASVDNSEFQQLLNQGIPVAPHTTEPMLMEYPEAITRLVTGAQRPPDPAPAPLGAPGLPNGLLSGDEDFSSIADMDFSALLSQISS
UniProt P25963: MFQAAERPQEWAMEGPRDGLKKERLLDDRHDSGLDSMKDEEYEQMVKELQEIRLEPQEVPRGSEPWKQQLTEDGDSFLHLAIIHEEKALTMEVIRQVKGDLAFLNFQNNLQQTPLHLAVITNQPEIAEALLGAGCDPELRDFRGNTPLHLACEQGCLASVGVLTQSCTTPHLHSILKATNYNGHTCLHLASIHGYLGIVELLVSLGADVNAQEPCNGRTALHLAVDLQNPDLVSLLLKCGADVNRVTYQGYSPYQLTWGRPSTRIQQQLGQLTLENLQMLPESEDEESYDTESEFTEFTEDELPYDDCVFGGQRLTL

T1: FLAG-tagged AEG-1 S298A (human) (UniProt Q86UE4)
T1 sequence: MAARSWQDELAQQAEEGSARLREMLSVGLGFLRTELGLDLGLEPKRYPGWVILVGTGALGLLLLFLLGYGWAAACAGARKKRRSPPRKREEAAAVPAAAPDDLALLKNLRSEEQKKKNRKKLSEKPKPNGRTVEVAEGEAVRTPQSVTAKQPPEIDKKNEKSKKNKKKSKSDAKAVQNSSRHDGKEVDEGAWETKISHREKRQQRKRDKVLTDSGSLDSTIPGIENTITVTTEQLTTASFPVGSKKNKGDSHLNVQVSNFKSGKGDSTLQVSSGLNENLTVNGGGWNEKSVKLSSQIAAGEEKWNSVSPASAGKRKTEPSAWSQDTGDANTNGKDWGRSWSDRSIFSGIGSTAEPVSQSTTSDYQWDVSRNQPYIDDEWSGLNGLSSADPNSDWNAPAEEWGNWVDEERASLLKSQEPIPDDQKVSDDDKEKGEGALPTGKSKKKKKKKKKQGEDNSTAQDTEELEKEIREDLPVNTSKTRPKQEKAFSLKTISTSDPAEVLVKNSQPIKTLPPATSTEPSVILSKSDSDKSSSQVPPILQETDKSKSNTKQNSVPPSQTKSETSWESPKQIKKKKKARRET

T2: FLAG-tagged wild-type AEG-1 (human) (UniProt Q86UE4)
T2 sequence: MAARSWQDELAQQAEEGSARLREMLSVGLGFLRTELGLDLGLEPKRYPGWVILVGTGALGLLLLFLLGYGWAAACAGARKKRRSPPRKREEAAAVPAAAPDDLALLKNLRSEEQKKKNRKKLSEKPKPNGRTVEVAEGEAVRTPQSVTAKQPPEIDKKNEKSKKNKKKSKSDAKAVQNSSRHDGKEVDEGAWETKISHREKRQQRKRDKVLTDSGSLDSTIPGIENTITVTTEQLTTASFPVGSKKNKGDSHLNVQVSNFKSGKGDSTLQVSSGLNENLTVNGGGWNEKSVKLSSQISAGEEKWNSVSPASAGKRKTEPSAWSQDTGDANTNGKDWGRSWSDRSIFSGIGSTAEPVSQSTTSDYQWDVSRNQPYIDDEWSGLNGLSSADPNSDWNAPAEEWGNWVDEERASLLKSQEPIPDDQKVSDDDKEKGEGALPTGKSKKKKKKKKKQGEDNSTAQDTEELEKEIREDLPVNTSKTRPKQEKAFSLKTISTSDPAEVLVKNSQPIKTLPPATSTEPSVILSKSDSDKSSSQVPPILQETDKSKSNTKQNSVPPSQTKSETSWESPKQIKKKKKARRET

T3: Astrocyte-Elevated Gene-1 (AEG-1), endogenous in MCF-7 cells (human (endogenous in MCF-7)) (UniProt Q86UE4)
T3 sequence: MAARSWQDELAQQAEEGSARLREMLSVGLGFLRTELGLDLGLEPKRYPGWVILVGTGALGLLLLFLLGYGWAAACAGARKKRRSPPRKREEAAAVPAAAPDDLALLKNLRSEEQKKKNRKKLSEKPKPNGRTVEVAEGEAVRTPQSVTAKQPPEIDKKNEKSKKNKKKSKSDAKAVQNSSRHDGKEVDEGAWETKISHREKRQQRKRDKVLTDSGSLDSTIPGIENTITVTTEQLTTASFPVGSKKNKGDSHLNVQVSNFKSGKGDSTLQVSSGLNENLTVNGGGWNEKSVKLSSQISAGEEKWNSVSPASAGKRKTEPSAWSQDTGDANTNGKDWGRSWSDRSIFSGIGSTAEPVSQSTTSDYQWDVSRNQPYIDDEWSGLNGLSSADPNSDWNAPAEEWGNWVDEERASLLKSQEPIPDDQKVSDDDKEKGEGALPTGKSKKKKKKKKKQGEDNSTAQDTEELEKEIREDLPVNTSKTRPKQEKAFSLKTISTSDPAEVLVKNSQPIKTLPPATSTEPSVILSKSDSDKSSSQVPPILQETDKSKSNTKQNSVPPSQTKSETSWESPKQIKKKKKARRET


How the values were obtained:
[1] = molecular target: T1, FLAG-tagged AEG-1 S298A (human); experiment: co-IP; HEK293 cells with overexpressed wild-type or S298A AEG-1 (Supplementary Fig. 4a,c); bait and treatments not told in the text shown
[2] = molecular target: T2, FLAG-tagged wild-type AEG-1 (human); experiment: as above
[3] = molecular target: T1, FLAG-tagged AEG-1 S298A (human); experiment: co-IP; HEK293 cells transfected with FLAG-tagged WT or S298A AEG-1, serum-starved and stimulated with TNF-α (10 ng/ml); anti-FLAG agarose precipitation, RIPA buffer, immunoblot
[4] = molecular target: T2, FLAG-tagged wild-type AEG-1 (human); experiment: as above
[5] = molecular target: p65 subunit of NF-κB, endogenous in MCF-7 cells (human (endogenous in MCF-7)) (UniProt Q04206); experiment: co-IP; endogenous proteins immunoprecipitated from MCF-7 lysates (RIPA buffer, Protein A/G PLUS Agarose), immunoblot; AEG-1 siRNA knockdown as control of specificity
[6] = molecular target: T3, Astrocyte-Elevated Gene-1 (AEG-1), endogenous in MCF-7 cells (human (endogenous in MCF-7)); experiment: as above

Row | binding [1] | binding [2] | Molecule | also measured
1 | no binding | binds | IκBα in HEK293 cells (from UniProt P25963 1-317) | –
2 | – | – | p65 subunit of NF-κB in HEK293 cells (from UniProt Q04206 1-551) | binding [3]: no binding; binding [4]: binds
3 | – | – | Astrocyte-Elevated Gene-1 (AEG-1), endogenous in MCF-7 cells (protein, UniProt Q86UE4 1-582) MAARSWQDELAQQAEEGSARLREMLSVGLGFLRTELGLDLGLEPKRYPGWVILVGTGALGLLLLFLLGYGWAAACAGARKKRRSPPRKREEAAAVPAAAPDDLALLKNLRSEEQKKKNRKKLSEKPKPNGRTVEVAEGEAVRTPQSVTAKQPPEIDKKNEKSKKNKKKSKSDAKAVQNSSRHDGKEVDEGAWETKISHREKRQQRKRDKVLTDSGSLDSTIPGIENTITVTTEQLTTASFPVGSKKNKGDSHLNVQVSNFKSGKGDSTLQVSSGLNENLTVNGGGWNEKSVKLSSQISAGEEKWNSVSPASAGKRKTEPSAWSQDTGDANTNGKDWGRSWSDRSIFSGIGSTAEPVSQSTTSDYQWDVSRNQPYIDDEWSGLNGLSSADPNSDWNAPAEEWGNWVDEERASLLKSQEPIPDDQKVSDDDKEKGEGALPTGKSKKKKKKKKKQGEDNSTAQDTEELEKEIREDLPVNTSKTRPKQEKAFSLKTISTSDPAEVLVKNSQPIKTLPPATSTEPSVILSKSDSDKSSSQVPPILQETDKSKSNTKQNSVPPSQTKSETSWESPKQIKKKKKARRET | binding [5]: binds
4 | – | – | IKKβ, endogenous in MCF-7 cells (enzyme, UniProt O14920 1-756) MSWSPSLTTQTCGAWEMKERLGTGGFGNVIRWHNQETGEQIAIKQCRQELSPRNRERWCLEIQIMRRLTHPNVVAARDVPEGMQNLAPNDLPLLAMEYCQGGDLRKYLNQFENCCGLREGAILTLLSDIASALRYLHENRIIHRDLKPENIVLQQGEQRLIHKIIDLGYAKELDQGSLCTSFVGTLQYLAPELLEQQKYTVTVDYWSFGTLAFECITGFRPFLPNWQPVQWHSKVRQKSEVDIVVSEDLNGTVKFSSSLPYPNNLNSVLAERLEKWLQLMLMWHPRQRGTDPTYGPNGCFKALDDILNLKLVHILNMVTGTIHTYPVTEDESLQSLKARIQQDTGIPEEDQELLQEAGLALIPDKPATQCISDGKLNEGHTLDMDLVFLFDNSKITYETQISPRPQPESVSCILQEPKRNLAFFQLRKVWGQVWHSIQTLKEDCNRLQQGQRAAMMNLLRNNSCLSKMKNSMASMSQQLKAKLDFFKTSIQIDLEKYSEQTEFGITSDKLLLAWREMEQAVELCGRENEVKLLVERMMALQTDIVDLQRSPMGRKQGGTLDDLEEQARELYRRLREKPRDQRTEGDSQEMVRLLLQAIQSFEKKVRVIYTQLSKTVVCKQKALELLPKVEEVVSLMNEDEKTVVRLQEKRQKELWNLLKIACSKVRGPVSGSPDSMNASRLSQPGQLMSQPSTASNSLPEPAKKSEELVAEAHNLCTLLENAIQDTVREQDQSFTALDWSWLQTEEEEHSCLEQAS | binding [6]: binds
5 | binds | binds | IKKβ in HEK293 cells (enzyme, UniProt O14920 1-756) MSWSPSLTTQTCGAWEMKERLGTGGFGNVIRWHNQETGEQIAIKQCRQELSPRNRERWCLEIQIMRRLTHPNVVAARDVPEGMQNLAPNDLPLLAMEYCQGGDLRKYLNQFENCCGLREGAILTLLSDIASALRYLHENRIIHRDLKPENIVLQQGEQRLIHKIIDLGYAKELDQGSLCTSFVGTLQYLAPELLEQQKYTVTVDYWSFGTLAFECITGFRPFLPNWQPVQWHSKVRQKSEVDIVVSEDLNGTVKFSSSLPYPNNLNSVLAERLEKWLQLMLMWHPRQRGTDPTYGPNGCFKALDDILNLKLVHILNMVTGTIHTYPVTEDESLQSLKARIQQDTGIPEEDQELLQEAGLALIPDKPATQCISDGKLNEGHTLDMDLVFLFDNSKITYETQISPRPQPESVSCILQEPKRNLAFFQLRKVWGQVWHSIQTLKEDCNRLQQGQRAAMMNLLRNNSCLSKMKNSMASMSQQLKAKLDFFKTSIQIDLEKYSEQTEFGITSDKLLLAWREMEQAVELCGRENEVKLLVERMMALQTDIVDLQRSPMGRKQGGTLDDLEEQARELYRRLREKPRDQRTEGDSQEMVRLLLQAIQSFEKKVRVIYTQLSKTVVCKQKALELLPKVEEVVSLMNEDEKTVVRLQEKRQKELWNLLKIACSKVRGPVSGSPDSMNASRLSQPGQLMSQPSTASNSLPEPAKKSEELVAEAHNLCTLLENAIQDTVREQDQSFTALDWSWLQTEEEEHSCLEQAS | –
